The text below walks through data of the RNAGym collection of RNA variant scans (doi:10.7554/elife.90254).

The source gives no read counts; variants with many changes may rest on few reads.

The chains are these.
B1: LINE1-mini (parent)
chain: GGCAGAGCUCAACACAGCGUGGCAAAGUGGCUGUGGCUAGACUGCC

Variants of B1 are the subject of the data set. In words: self-cleavage, relative activity (ratio to wild type); higher = more cleavage; in vitro, sequencing; the parent is a self-cleaving ribozyme.
As for A6U G40U U43G, the self-cleavage was 0.02. On to G7A A14G G29A, for which the self-cleavage came out at 0.19.

With A6U C10G G27A, the self-cleavage came to 0.05. With G7A A12U G22A A41G the figure was 0.64. The figure for A6U A39U U43A is 0; for A6U A11U U20G G21U U43C it is 0.01. On to A6U C8G U20A G36U G40U, for which the self-cleavage is 0.03.

In the case of A6U G22U C23U G35A G40U, the self-cleavage turned out to be 0.84. The figure for A6U U9A C13U U32A G33U G40U is 0.04. Regarding G7A A14C G21C U28G, the self-cleavage is 0.01. With A6U U9G A12U U28C G30U the figure was 0.03. The figure for A6G G21C A24U U38C is 0.05; for A6U G33U U38C C42U G44A C46G it is 0.05; for A6U G17U C23A G30U G36U it is 0.14. For the variant A6G C23U G29U A41U, the self-cleavage is 0.18. The figure for A6U U9G G17A A26C is 0.08; for G7A C8A C13A G21A G40U it is 0.28. With A6U C13A C31U G35A the figure was 0.1; with A6G G30U G40C C46G, 0.11; with A6G G22U G30C G35A G40A, 0.03. With G7A C8A C18A G21A G33U the figure was 0.29; with G7A A14U G27A, 0.21; with G7A A24G A26U C31U C37A, 0.11. Turning to G7A A14U G17C, the self-cleavage turned out to be 0.15. The figure for G7A A24U A25C is 0.14; for A6G G17U A26C G30U A39C A41C it is 0.03; for G7A A12G G27A U34G G36A U38C C45U it is 0.22.

Take A6U U20A C23A A25C C31U: the self-cleavage stood at 0.38.

As for A6U G27A U28A G30A A39U, the self-cleavage is 0.52. The figure for A6U C13A G35C is 0.05. With A6G U9G C23A G29A C42G G44U the figure was 0.01. The figure for A6U C8G C10U U32C A41U is 0.01. Regarding G7A A12C C15U C45U, the self-cleavage came out at 0.04. For the variant G7A A14G C15U U32G, the self-cleavage stood at 0.43. The figure for A6G C18G G29U is 0.13; for A6U C15A G17U G29C it is 0.02; for A6U G21U C45A it is 0.35. With A6G G17C G21C A24C the figure was 0.09; with A6U C18U G22C, 0.47. With G7A A26U G40U A41U U43G the figure was 0.51. As for G7A C8U C46U, the self-cleavage is 0.37. The figure for A6U C10A G27C U38G is 0.02; for A6G G17C U20G G36A it is 0. With A6U A11G A12C U34C U38C the figure was 0. A6G U28G C46A: the self-cleavage was 0.1.

As to G7A A11U A25U, the self-cleavage is 0.01.

On to G7A C8U G36A, for which the self-cleavage turned out to be 0.22.

Turning to G7A A12G G40C A41C, the self-cleavage is 0.01. With A6G G29A C31A the figure was 0.04.

As for A6U G33C U38A, the self-cleavage turned out to be 0.03. The figure for A6U G21U C31G is 0.27. With A6G G17U C23U G29U A41C, the self-cleavage was 0.06. In the case of G7A C8G G17A, the self-cleavage was 0.04.

Consider A6U A25C C31A C42A U43G, for which the self-cleavage was found to be 0.11.

Regarding G7A A25G A41G, the self-cleavage worked out at 0.04.

Take A6G G7C C31U: the self-cleavage was determined as 0.06. The figure for A6G G7A G21A C31U U32C U34G G44A C45A is 0.06.

A6U C10U U28C A39C: the self-cleavage was found to be 0.14. Take G7A C8U C13U G21U: the self-cleavage is 0.74. With G7A A16C G17A G36C G40U G44A the figure was 0.02; with A6U G21A A25C, 1.35. With A6U C10A A11U A12U A41G U43C the figure was 0.02; with G7A A11C G19U G33A G35C U43A, 0.06. For the variant A6G U9A C37G C46U, the self-cleavage was 0.02. On to A6G G19A G22U G27U G36U, for which the self-cleavage worked out at 0.03. Turning to G7A A24G G40U C46U, the self-cleavage came to 0.04. With A6G G7C U43G the figure was 0.01; with A6G U20A G21C, 0.08. With A6U U20C G22U G29U the figure was 0.21.

For the variant G7A C8G C10A A16U G17A, the self-cleavage is 0.06. As to A6G G19U A25G U32A, the self-cleavage turned out to be 0.09.

Turning to G7A A12C A41U C46A, the self-cleavage stood at 0. The figure for A6U G22U U34C is 0.17; for A6U A11C C18A G29A it is 0.07; for A6G G27A A39U it is 0.69.

For A6U G17A G19U, the self-cleavage worked out at 0.06. On to A6G U9A C10U C37A C42U, for which the self-cleavage turned out to be 0.05. For the variant G7A C8A C10A, the self-cleavage turned out to be 0.02. Turning to A6G G22U A24U C31U G33A G35U C42G, the self-cleavage was determined as 0.04. The figure for A6G C18A U28A G35U is 0.03. On to G7A A12G G21A C42A, for which the self-cleavage worked out at 0.12. With G7A A24G C37U A41U the figure was 0.03; with A6U G17A C37A A39G, 0.13. With A6U C18G G33C U43A the figure was 0.01; with G7A A14C C31A, 0.08. Regarding A6G G19U U28A C42G, the self-cleavage is 0. A6U C18A U20C A25C C37U C45A: the self-cleavage amounted to 0.02.

For the variant A6U C23U U43A, the self-cleavage was determined as 0.14. With A6U G7U G29U the figure was 0.07; with A6G G33C C37A, 0.05; with A6G G27A G29A C31G, 0.05.

Regarding A6G U9A U32A C37U, the self-cleavage amounted to 0.02.

Regarding G7A A14G A16G A25G, the self-cleavage worked out at 0.03. A6U A12U G27A: the self-cleavage was 0.07. Take A6G G19U G36A C45U: the self-cleavage stood at 0.04.

For A6U G29U U32A, the self-cleavage stood at 0.11. As to G7A A16G C18G A24G C45G, the self-cleavage was 0.08. Turning to A6U C15G G33A C37G G40U, the self-cleavage is 0.01.

As for A6U G7U U38A, the self-cleavage was determined as 0.07. Regarding A6U C8A C10U G22C U28G, the self-cleavage amounted to 0.05. The figure for G7A A25G G33C is 0.04.

Turning to A6U A12U C13G C37U, the self-cleavage amounted to 0.08. With A6U C8U C45G the figure was 0.55. With A6U G19U A24C the figure was 0.22. With A6U G17A G40C C42G the figure was 0.12. For the variant G7A C8G C10A G40A, the self-cleavage was 0.07. For G7A C8U C10G G21U U38A, the self-cleavage came to 0.02. With A6G G29C C37G the figure was 0.01. The figure for A6U C18U A25C G27C is 0.29; for A6U C15A A16G C37G it is 0.05; for A6U U20C U34C C37U A39U it is 0.1. With G7A C8G G19U A26C G29U the figure was 0.03; with A6U U28C C46G, 1.11. Turning to A6U A11G G29A, the self-cleavage came to 0.02. With G7A C8U C18A A39U the figure was 0.02.

For the variant A6U C15G A16U U20A U28G, the self-cleavage is 0.21. The figure for A6U C10G U20G is 0.04; for A6G G17C A24U C37U A41U C42U it is 0. The figure for A6U C10A G27A U28C is 0.03; for A6U G7A C10G G33A A39G it is 0; for A6G G7C C31U U32C G35A G40A U43C it is 0.09.

Turning to A6U C13G G33C, the self-cleavage was 0.07. With A6G G19A G40A C42U the figure was 0.01. The figure for A6U C15G G19A is 0.26. As for A6U A14C C18G G30A G44C, the self-cleavage turned out to be 0.35. With A6U U9A A11U G19U C23A A26U U38A the figure was 0; with A6U A14U G36A, 0.27. The figure for A6U C18G G21C G22A A25U is 0.19; for A6U A12G G22C A39U U43A it is 0.03; for A6U C18A G22A G40C it is 0.28. The figure for A6U A25G U32A is 0.1.

As for A6U C13U A14U U32C G44U, the self-cleavage is 0.19. The figure for A6U C13A U34A U43A is 0.12; for A6G C31U C45G it is 0.01. With A6U U9G A12U the figure was 0.07. With A6G U20C U38C, the self-cleavage was 0.01. For the variant G7A A14U A26C G33U U38C G44A, the self-cleavage came out at 0.03.

Consider A6G C37A C46U, for which the self-cleavage was determined as 0.38. The figure for A6U C10U C31G C45U is 0.21; for A6G G19U G44A it is 0.07; for A6U C10U U20C it is 0.12. With A6U G7U C10G the figure was 0.01; with A6G U20C C45U, 0.14. With A6U C13G C23A U34G the figure was 0.01. For the variant A6U C23A U28C A39C A41C, the self-cleavage was 0.16. The figure for A6G G17C C31A is 0.02.

As for A6U G7A C8A A12C C13A, the self-cleavage was 0.59.

In the case of G7A C8G A41C, the self-cleavage came to 0.08. With A6G C37G G40A the figure was 0.05. With G7A A12C A25G the figure was 0.01. With A6G U28G G30C C37G U38C C46A the figure was 0.05. As for G7A A12U G29U G40C, the self-cleavage was found to be 0.28. With A6U A25U G33C the figure was 0.04; with A6U C13G U20G G30A, 0.19. The figure for A6G C37U U43A is 0.01; for G7A C8G G40U it is 0.14; for A6G G17A G27A it is 0.19. With A6U C18A A39U the figure was 0.81; with A6U G17C G22U, 0.11; with A6U C8G A14G A26G U34A G35C, 0.03. As to G7A A25G G40U, the self-cleavage was 0.03. The figure for A6U U9A C23U is 0.2; for A6U U28A G29C G30U it is 0.17; for A6U A12U U28G it is 0.03. The figure for A6U C18U U20G A24U U34G A39G is 0.01. The figure for G7A A11C C45G is 0.02. Take A6U G19U G36U: the self-cleavage is 0.06.
